# Source: PubChem BioAssay AID1508642 (National Center for Advancing Translational Sciences (NCATS), 2021)
# Hit rate of the full screen: of about 43,000 compounds, about 200 (0.47%) were called active. Inconclusive results (about 12%) are left out. The call rests on the fitted dose curve; in most records, active means well fitted cell-killing curve with a large enough effect; inconclusive means small, poorly fitted or top-dose-only effect, or effect the other way; inactive means flat fitted curve, though single readings scatter. The list shows a part of the results.
# Test: Cell viability qHTS assay in S16 Pmp22-F2sN cells; further: nearly all actives have a fitted effect of over 65% in size
# Details: S16 Pmp22-F2sN Schwann cells (luciferase reporters placed in the Pmp22 gene) viability, CellTiter-Glo, 24 h; series mostly up to 57.5 µM; activity change, negative = cytotoxicity: at the top concentration
# Outline: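 S16 Schwann cells carrying the Pmp22-F2sN reporter, seeded in 1536-well format, were exposed to library compounds for 24 h at 37C. Viability was read as CellTiter-Glo luminescence after 15 min at room temperature.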
# On the % scale 0 is the no-effect control and ±100 the full control effect.
row,Compound,"activity change, negative = cytotoxicity"
1,COc1ccc(N2CCN(S(=O)(=O)c3ccc(OC)c(-c4noc(C)n4)c3)CC2)cc1,inactive: -6.17%
2,O=C(Cn1ncc2c3ccccc3n(Cc3ccc(Cl)cc3)c2c1=O)NCc1cccs1,inactive: 5.41%
3,COc1ccc(-c2cn3nc(N4CCC(C(=O)Nc5cccc(OC)c5)CC4)sc3n2)cc1,inactive: -1.16%
4,CCOc1ccccc1NC(=O)C(C)Sc1nc(-c2ccccc2)c(C#N)c(=O)[nH]1 (configuration not stated),inactive: -0.849%
5,N#Cc1ccccc1Cn1c(=O)n(CCCCC(=O)NCc2ccc3c(c2)OCO3)c(=O)c2ccccc21,inactive: 6.35%
6,Cc1ccccc1C(=O)Nc1nnc(S(=O)(=O)N(C)Cc2ccc(Cl)cc2)s1,inactive: 10.7%
7,O=C(Cc1ccc(F)cc1)N1CCC(c2nc3c(nnn3Cc3ccc(F)cc3)c(=O)[nH]2)CC1,inactive: 3.59%
8,CCCn1c(=O)c2sccc2n2c(CCCC(=O)Nc3ccccc3OCC)nnc12,inactive: 5.75%
9,COc1ccc(CC(=O)N2CC(=O)Nc3ccc(Br)cc3C2c2ccc(F)cc2)cc1 (configuration not stated),inactive: -24.5%
10,Cc1ccc(CN(C(=O)COc2ccc(C(C)C)cc2)C2CCS(=O)(=O)C2)o1 (configuration not stated),inactive: -20.9%
11,O=C(CCSCc1ccccc1F)N1CCN(c2ccc(Cl)cc2)CC1,inactive: 9.87%
12,COc1ccc(-c2nc3ccccc3o2)cc1NC(=O)CSc1ccc(Cl)cc1,inactive: 0.435%
13,COc1ccc(CC(=O)Nc2c(C(=O)Nc3ccc(F)cc3)oc3ccccc23)cc1OC,inactive: 15.8%
14,COc1ccc(OC)c(CCNC(=O)CN2C(=O)COc3ccc(S(=O)(=O)N4CCC(C)CC4)cc32)c1,inactive: -10.8%
15,COc1ccc(-n2c(/C=C/c3cccc4ccccc34)nc3ccccc3c2=O)cc1Cl,inactive: -21.5%
16,CCCN1CCN(CCNC(=O)Nc2cc(C)ccc2OC)CC1,inactive: 5.56%
17,COc1cc2c(C(=O)Nc3ccc(C)cc3Br)cn(C)c(=O)c2cc1OC,inactive: -3.36%
18,CCOC(=O)c1ccc(NC2=CC(c3ccc(O)c(OCC)c3)N(c3ccc(C(=O)OCC)cc3)C2=O)cc1 (configuration not stated),inactive: 7.56%
19,CCC1CCCCN1CCCNC(=O)c1c(O)nc2c(C)cccn2c1=O (configuration not stated),inactive: 23.8%
20,COc1ccccc1NC(=O)Cn1c(=O)n(CCc2ccccc2)c(=O)c2c3c(sc21)CN(C(C)=O)CC3,inactive: -11.8%
21,COc1ccc(CNC(=O)CSc2ncc3c(n2)-c2cc(Cl)ccc2N(Cc2ccccc2)S3(=O)=O)cc1OC,inactive: 7.85%
22,Cc1ccc(S(=O)(=O)N2CCc3cc(C(=O)Nc4ccc(C)c(C)c4)ccc32)cc1,inactive: -11.8%
23,CCC(=O)OCc1cnc(C)c2oc(=O)c(C(=O)Nc3ccccc3C(F)(F)F)cc12,inactive: 3%
24,COc1cc2ccccc2cc1C(=O)Nc1cc(-c2nc3ccccc3o2)ccc1C,inactive: 12%

row,Compound,"activity change, negative = cytotoxicity"
1,Cc1cccc(N(C)C(=O)CN(C)S(=O)(=O)c2ccc3[nH]c4c(c3c2)CCCC4)c1,inactive: -23.8%
2,O=C(c1ccccc1)n1nc(-c2ccco2)nc1NCc1cccs1,inactive: 0.403%
3,Cc1c(C(=O)OCC2CCCCC2)[nH]c2c1C(=O)CC(c1ccc(Cl)cc1)C2 (configuration not stated),inactive: 6.75%
4,Cc1cccc(NC(=O)CSc2nc(C3CCCC3)nc3c2c(=O)n(C)c(=O)n3C)c1C,inactive: 5.92%
5,Cc1nnsc1C(=O)Oc1ccc(C(C)C)cc1,inactive: 8.4%
6,CCN(CC)C(=O)c1sc2c(c1C)c(=O)n(-c1ccc(C)c(C)c1)c(=O)n2Cc1cc(=O)n2c(C)cccc2n1,inactive: -11.6%
7,COc1ccc2c(c1)-c1nc(NC(=O)c3ccccc3F)sc1CC2,inactive: -25%
8,CCn1c(=O)cc(OCC(=O)NCc2ccccc2Cl)c2ccccc21,inactive: 4.12%
9,Cc1ccc(C(=O)Nc2ccc(C(=O)OCc3cc(=O)n4ccsc4n3)cc2)cc1,inactive: 7.53%
10,O=C(Nc1nnc(S(=O)(=O)N2CCN(c3ccc(F)cc3)CC2)s1)c1ccc(Cl)cc1,inactive: -3.94%
11,COc1ccc(C)cc1NC(=O)C(=O)NCC1(c2ccccc2)CCCC1,inactive: -22.3%
12,CCCCSCCCNC(=O)CN1C(=O)COc2ccc(S(=O)(=O)N3CCC(C)CC3)cc21,inactive: 9.83%
13,Cc1ccc(Cl)cc1NC(=O)COCc1cc(-c2ccco2)on1,inactive: -13.4%
14,O=C(CNC(=O)c1ccc(Cl)cc1)OCc1cc(=O)n2ccsc2n1,inactive: -0.76%
15,COc1ccc(-c2[nH]c3c(c2-c2c(-n4cccc4)n(C)c(=O)n(C)c2=O)c(=O)n(C)c(=O)n3C)cc1,inactive: -1.23%
16,Cc1ccc(NC(=O)Cn2c(CCC(=O)O)ccc2-c2ccc(Cl)cc2)cc1,inactive: -12.6%
17,COc1ccccc1N1CCN(c2ncnc3c2nc2n3CCCC2)CC1,inactive: -17%
18,COC(=O)c1ccc(NC(=O)Cn2nc(C(=O)Nc3ccc(C)cc3)ccc2=O)cc1,inactive: 2.97%
19,Cc1ccc(Cn2cc(CCC(=O)NCc3ccccc3F)c3ccccc32)cc1,inactive: 3.33%
20,CCN(CC)S(=O)(=O)c1ccc2c(c1)N(CC(=O)N(C)Cc1ccccc1)C(=O)CO2,inactive: 8.28%
21,Cc1cc(C)c2c(n1)SCCN2C(=O)Nc1ccc(C(=O)Nc2cc(Cl)ccc2C)cc1,inactive: 2.91%
22,COc1cccc(C(=O)Nc2cc3cc(OC)ccc3oc2=O)c1,inactive: -2.06%
23,COC(=O)c1cc2sc(Cl)cc2n1Cc1nc(-c2ccc(OC)cc2)oc1C,inactive: -2.64%
